The whole screen tested about 310,000 compounds, of which about 14,000 (4.5%) showed an effect of 50% or more. Effects have a minus sign here. Some of the results follow.

Here are results for 25 compounds from publication PMC4336329 (PLoS ONE, 2015).
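Further: peak tail current of the secondary pulse compared with the same well before compound.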

For this assay, the target named is human ether-à-go-go-related gene (hERG) potassium channel (human, UniProt Q12809). As to the kind of experiment: primary screen, population patch clamp on CHO cells stably expressing hERG.
Sequence of human ether-à-go-go-related gene (hERG) potassium channel (Q12809 whole entry, looked up): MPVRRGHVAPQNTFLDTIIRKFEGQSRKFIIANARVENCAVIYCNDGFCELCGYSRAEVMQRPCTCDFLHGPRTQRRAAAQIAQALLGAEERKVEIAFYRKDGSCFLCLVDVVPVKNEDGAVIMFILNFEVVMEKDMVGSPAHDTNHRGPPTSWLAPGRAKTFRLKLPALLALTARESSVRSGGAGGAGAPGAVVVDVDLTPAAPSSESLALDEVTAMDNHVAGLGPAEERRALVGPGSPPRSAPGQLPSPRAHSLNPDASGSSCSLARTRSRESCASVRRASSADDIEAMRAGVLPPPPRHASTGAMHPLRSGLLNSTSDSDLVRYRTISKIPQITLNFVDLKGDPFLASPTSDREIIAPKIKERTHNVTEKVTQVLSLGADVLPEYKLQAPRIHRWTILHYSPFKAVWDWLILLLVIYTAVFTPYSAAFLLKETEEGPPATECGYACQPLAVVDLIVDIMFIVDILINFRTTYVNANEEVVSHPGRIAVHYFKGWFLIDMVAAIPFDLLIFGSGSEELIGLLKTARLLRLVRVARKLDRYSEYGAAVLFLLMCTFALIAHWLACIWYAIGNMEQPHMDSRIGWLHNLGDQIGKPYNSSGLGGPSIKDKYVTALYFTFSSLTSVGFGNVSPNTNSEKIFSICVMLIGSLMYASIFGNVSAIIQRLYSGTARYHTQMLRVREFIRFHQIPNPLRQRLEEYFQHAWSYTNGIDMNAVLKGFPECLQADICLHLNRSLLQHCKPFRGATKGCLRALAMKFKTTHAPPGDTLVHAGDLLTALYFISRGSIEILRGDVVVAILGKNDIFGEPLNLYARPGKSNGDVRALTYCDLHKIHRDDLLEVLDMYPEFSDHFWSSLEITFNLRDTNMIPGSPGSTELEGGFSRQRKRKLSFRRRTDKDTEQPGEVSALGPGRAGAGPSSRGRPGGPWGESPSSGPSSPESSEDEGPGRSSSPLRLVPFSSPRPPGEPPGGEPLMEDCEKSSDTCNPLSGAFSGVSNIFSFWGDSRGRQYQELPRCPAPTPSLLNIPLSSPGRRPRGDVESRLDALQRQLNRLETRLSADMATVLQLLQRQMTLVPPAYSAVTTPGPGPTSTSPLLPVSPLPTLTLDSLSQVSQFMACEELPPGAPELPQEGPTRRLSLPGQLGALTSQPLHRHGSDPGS
Regarding `COc1ccc(Cl)cc1Nc1nc(-c2sc(NC(=O)c3ccccc3)nc2C)cs1`, the “hERG current change (%, negative = inhibition) at 10uM” value stood at 17.4%.
With `Cc1cc(-c2ccc(C)c(S(=O)(=O)NCC3CCN(Cc4ccccc4F)CC3)c2)on1`, the “hERG current change (%, negative = inhibition) at 10uM” value is listed as -52.8%.
To `O=C(Cn1nnc(-c2ccccc2Cl)n1)N/N=C/c1ccc(-c2cccc(Cl)c2)o1` belongs 2.26%.
The figure for `O=C(N/N=C/c1ccco1)c1ccc(N2CCCC2=O)cc1` is 2.45%; for `COC(=O)CSc1nnc(-c2ccc(OC)c(OC)c2)o1` it is 9.19%; for `NC(=O)NC(=O)CN1c2cccc3cccc(c23)S1(=O)=O` it is -4.59%.
With `O=C(Nc1cccc(Cl)c1N1CCCC1)c1ccco1`, the “hERG current change (%, negative = inhibition) at 10uM” value was found to be 6.11%.
The figure for `O=C(O)c1ccc(NCc2cccc(Br)c2)cc1` is 5.85%; for `O=C(CCC(=O)N(CC(=O)NC1CCCC1)c1cccc(F)c1)Nc1nccs1` it is -9.41%; for `CCOC(=O)N1CCN(C(=O)c2ccc(CS(=O)Cc3ccc(C)cc3)o2)CC1` (stereo not shown) it is 7.08%.
`CC(=O)c1ccc(S(=O)(=O)NCCC(=O)OCC(=O)NCCc2ccccc2)cc1`: the “hERG current change (%, negative = inhibition) at 10uM” value is given as -15.1%.
The figure for `CCC(=O)c1ccc(O)c(OC)c1` is -4.3%; for `Cc1ccc2c(c1)N(CC(=O)NCc1cccnc1)C(=O)CO2` it is -0.769%.
To `CCOC1=C/C(=C/c2c(N)n3nc(CC(=O)N4CCCCC4)sc3nc2=O)C=CC1=O` belongs 20.4%.
To `CC1=C(C(=O)OC2CCCCC2)C(c2ccc(C)o2)C2=C(CC(C)(C)CC2=O)N1` (stereo not shown) belongs -5.15%; to `Cc1cc(C(=O)NCc2cccnc2)n(-c2ccccc2)n1`, -9.81%.
Turning to `CCn1c(SCC(=O)N2CCOCC2)nc2c(c1=O)SC(C)C2` (stereo not shown), the “hERG current change (%, negative = inhibition) at 10uM” value is given as 7.5%.
Consider `O=C(Cc1c[nH]c2ccccc12)N1CCc2ccccc21`, for which the “hERG current change (%, negative = inhibition) at 10uM” value came to 1.03%.
Turning to `Cc1ccc(OCCN2CCN(c3nc(NCc4ccco4)c4ccccc4n3)CC2)cc1`, the “hERG current change (%, negative = inhibition) at 10uM” value is -62.6%.
`OCCNc1nc2ccccc2n1CC(O)c1ccccc1` (stereo not shown): the “hERG current change (%, negative = inhibition) at 10uM” value is given as -2.73%.
To `CN(C)C(=N)c1n[nH]nc1SCc1ccccc1.Cl` belongs 19.3%; to `COc1cc(OC)c2c(-c3ccccc3)cc(=O)oc2c1C(CCN1CCCC1)c1ccc2c(c1)OCO2` (stereo not shown), -46.9%; to `CCOc1ccc2[nH]c(=O)c(CN(CCO)C(=O)c3ccccc3F)cc2c1`, -0.495%.
To `COC(=O)c1ccccc1NC(=O)Nc1ccc(C)cn1` belongs 17.8%; to `COc1ccc(OCC(O)CNC(=O)/C=C/c2cccc([N+](=O)[O-])c2)cc1` (stereo not shown), 17.6%.
